Laboratory results: the supplement of paper PMC9513381

Experiments:
[1] = biological target: SARS-CoV-2 Wuhan-Hu-1 spike pseudovirus; assay: pseudovirus neutralization IC50; higher = weaker neutralization
Procedure: (§1)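 Single-round luciferase reporter pseudovirus mixed with antibody dilutions and put on 293T-ACE2 cells for 48 h; signal relative to no-antibody wells, four-parameter fit.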

[2] = biological target: SARS-CoV-2 Wuhan-Hu-1 spike pseudovirus; assay: pseudovirus neutralization IC90; higher = weaker neutralization
Procedure: as §1

[3] = biological target: SARS-CoV-2 Delta (B.1.617.2) spike RBD; assay: ELISA binding EC50; higher = weaker binding; ELISA of recombinant human antibody on coated antigen, from 10 µg/ml in fourfold dilutions; four-parameter fit.
[4] = biological target: SARS-CoV-2 Omicron BA.1 spike protein; assay: as above
[5] = biological target: SARS-CoV-2 Wuhan-Hu-1 spike receptor-binding domain; assay: as above

B1: B662 (protein)
chain 1: QVQLVQSGAEVKKPGASVKVSCKPSGYSFTDYYIHWVRQAPGQGLEWMGWINPNSGGTNYAQKFQGWVTMTRDMSSSTAYMEMSRLKSDDTAVYYCARGTATTNRYYHYGMDVWGQGTTVIVSS
chain 2: QAVVTQEPSLTVSPGGTVTLTCGSSTGAVTSGHYPYWFQQKPGQAPRTLIFDTSNKHSWTPARFSGSLLGDKAALTLSGAQPDDEAEYYCLLSYSGAQVFGGGTKLTVL
- pseudovirus neutralization IC50 [1]: 3.47 ng/mL
- pseudovirus neutralization IC90 [2]: 25 ng/mL
- ELISA binding EC50 [3]: 9.44 ng/mL
- ELISA binding EC50 [4]: > 1000 ng/mL
- ELISA binding EC50 [5]: 1.33 ng/mL

B2: B663 (protein)
chain 1: QVQLQESGPGLVKPSQTLSLTCAVSGGSISSGYYSWSWIRQPAGKGLEWIGFIDDSGSTHYNPSLKRRVTISMDTSKNQFSLKLSSVTAADTAVYYCARDNWNDQRPDYYGMDVWGQGTTVTVSS
chain 2: SYELTQPPSVSVSPGQTARITCSGDALPKQYAYWYQQKPGQAPLLVIYKDTERPSGIPERFSGSSSGTTVTLTISGVQAEDEADYYCQSADSSLVVFGGGTKLTVL
- pseudovirus neutralization IC50 [1]: > 1000 ng/mL
- pseudovirus neutralization IC90 [2]: > 1000 ng/mL
- ELISA binding EC50 [3]: 3.6 ng/mL
- ELISA binding EC50 [4]: 10.2 ng/mL
- ELISA binding EC50 [5]: 1.43 ng/mL

B3: B664 (protein)
chain 1: QVQLVESGGGVVQPGRSLRLSCAASGFTSSLYTMHWVRQAPGKGLEWVAVLLYDGNNKYYADSVKGRFTISRDNPKNTLYLQMNSLRAEDTAIYFCARAATVGAGSDDHWFAPWGQGTLVTVSS
chain 2: QSVLTQPPSVSGAPGQRVTISCAGGSSNIGAFYDVHWYQLLPRTAPKLLIFANTNRPSGVPDRFSGSKSGTSASLAITGLQAEDEATYYCQSYDSSLSGWVFGGGTKLTVL
- pseudovirus neutralization IC50 [1]: 26.4 ng/mL
- pseudovirus neutralization IC90 [2]: 439 ng/mL
- ELISA binding EC50 [3]: 62 ng/mL
- ELISA binding EC50 [4]: 35.1 ng/mL
- ELISA binding EC50 [5]: 2.6 ng/mL

B4: B666 (protein)
chain 1: EVQLVQSGAEVKKPGESLKISCKGSGYQFTRNWIAWVRQMPGKGLEWMGTIDPGDSETRYSPSFQGQVTISVDKSISTAYLQWSSLKASDTAKYFCARLFCGGDCPLDSWGQGTLVTVSS
chain 2: DIQMTQSPSTLSASVGDRVTITCRASQSISTWLAWYQQKPGRAPKLLIYDASNLESGVPSRFSGSGSGTEFTLTISSLQPDDFATYYCQQYNSYWTFGQGTKVEVK
- pseudovirus neutralization IC50 [1]: > 1000 ng/mL
- pseudovirus neutralization IC90 [2]: > 1000 ng/mL
- ELISA binding EC50 [3]: 8.27 ng/mL
- ELISA binding EC50 [4]: 3.48 ng/mL
- ELISA binding EC50 [5]: 2.6 ng/mL

B5: B667 (protein)
chain 1: EVQLVQSGAEIKRPGESLRISCQGSGYSLTNSWIAWVRQMPGKGLEWMGVIYAADSDTRYSPSFQGHVTISADKSISTAYLQWSSLKASDTAMYYCVRLSSNWYWGSAYWGQGTLVTVSS
chain 2: DIQMTQSPSSLSASVGDRVTITCQASQDISNYLNWYQQKPGKAPKLLIYDASNLETGVPSRFSGSGSGTDFSFTISSLQPEDIATYYCQQYNNLPPTFGGGTKVEIK
- pseudovirus neutralization IC50 [1]: > 1000 ng/mL
- pseudovirus neutralization IC90 [2]: > 1000 ng/mL
- ELISA binding EC50 [3]: 5.08 ng/mL
- ELISA binding EC50 [4]: 2.97 ng/mL
- ELISA binding EC50 [5]: 2.66 ng/mL

B6: B668 (protein)
chain 1: EVQLVQSGAEVKKPGESLKISCKGSGYIFNRNWIAWVRQMPGKGLEWMGVIDPGDSETRYSPSFQGQVTISVDKSISTAYLQWSSLKASDTAMYYCARQLVGGDSSFDFWGQGTLVTVSS
chain 2: DIQMTQSPSTLSASVGDRVTITCRASQSISSWLAWYQQKPGKAPKLLIYDASNLETGVPLRFSGSGSGTEFTLTISSLQPDDFATYYCQQYNSYPRTFGQGTTLEIK
- pseudovirus neutralization IC50 [1]: > 1000 ng/mL
- pseudovirus neutralization IC90 [2]: > 1000 ng/mL
- ELISA binding EC50 [3]: 4.04 ng/mL
- ELISA binding EC50 [4]: 3.72 ng/mL
- ELISA binding EC50 [5]: 0.865 ng/mL

B7: B2108 (protein)
chain 1: EVQLVESGGALQQPGRSLTLSCAASGFTFEDYAMHWVRQAPGKGLEWVSGITWTGGMIDYADSVKGRFIISRDNAKKSLYLHMRGLRPEDTALYYCARGSRSGSYHLRDHFYGMDVWGQGTTVTVSS
chain 2: DIQLTQSPSSLSASVGDRVTITCRASQNVNYYLNWYQQRPGKAPELLIYGASSLQSGVPSRFSGGGSETDFTLTISSLQPEDFATYYCQQSYDLPPTFGQGTRLEIK
- pseudovirus neutralization IC50 [1]: 31.5 ng/mL
- pseudovirus neutralization IC90 [2]: 367 ng/mL
- ELISA binding EC50 [3]: > 1000 ng/mL
- ELISA binding EC50 [4]: 318 ng/mL
- ELISA binding EC50 [5]: 1.64 ng/mL

B8: B672 (protein)
chain 1: QVQLQESGPGLVKPSQTLSLTCTVSGGSISSSDYYWSWIRQSPGKGLEWIGYIFYSGNTYYNPSLKSRLVISVDTSKNQFSLRLSSVTAADTAVYYCARDGAMVQGVFDFWGQGILVTVSS
chain 2: EIVLTQSPATLSLSPGERATLSCKASQSVRNYLAWYQQRPGQAPRLLIYDASLRATGIPARFSGSGSGTDFTLTISSLEPEDFAVYYCQQRYNWPPLTFGGGTKVEIK
- pseudovirus neutralization IC50 [1]: > 1000 ng/mL
- pseudovirus neutralization IC90 [2]: > 1000 ng/mL
- ELISA binding EC50 [3]: 7.58 ng/mL
- ELISA binding EC50 [4]: 2.72 ng/mL
- ELISA binding EC50 [5]: 1.17 ng/mL

B9: B673 (protein)
chain 1: QVQLVQSGPEVKKPGASVKVSCKASGYTFSNYFIHWVRQAPGQGLEWVGMISPGGAGTSYAQKFQGRVTMTRDTSTNTVYMELTSLRSEDTAVYYCPRADSGSYHFFDYWGQGTLVTVSS
chain 2: DIQMTQSPSSLSASVGDRVTITCRASQSISSDLNWYQQKPGKAPQLLIYAASILQSGAPSRFSGSGSGTDFTLTISALQPEDFATYYCQQSYSLFPITFGQGTRLEIK
- pseudovirus neutralization IC50 [1]: 7.65 ng/mL
- pseudovirus neutralization IC90 [2]: 47.3 ng/mL
- ELISA binding EC50 [3]: 16.2 ng/mL
- ELISA binding EC50 [4]: > 1000 ng/mL
- ELISA binding EC50 [5]: 1.05 ng/mL

B10: B674 (protein)
chain 1: QVQLVQSGAEVKKPGASVKVSCKASGNTFNNHYMHWVRQAPGQGLEWMGIISPSGGSTSYTQNYQGRVTVTRDTSTSTVYMELISLRYEDTAVYYCARADSGSYHFLDYWGQGTLVTVSS
chain 2: DIQMTQSPSSLSASVGDRVTITCRASQSISSSLNWYQQKPGKAPKLLIYAASILQSGVPSRFSGSGSGTEYTLTIDSLQPEDFATYFCQQSHSIPPITFGQGTRLEIK
- pseudovirus neutralization IC50 [1]: 14.3 ng/mL
- pseudovirus neutralization IC90 [2]: 99.5 ng/mL
- ELISA binding EC50 [3]: 25.6 ng/mL
- ELISA binding EC50 [4]: > 1000 ng/mL
- ELISA binding EC50 [5]: 1.48 ng/mL

B11: B677 (protein)
chain 1: EVQLVQSGAEVKKPGESLRISCKGSGYSFTSHWISWVRQMPGKGLEWMGRIDPSDSYTNYSPSFQGHVTISGDKSISTVYLQWSSLKASDSAMYYCVCTLVVVDHTIDYWGQGTLVTVSS
chain 2: EIVLTQSPATLSLSPGERATLSCRASQSVSSFLAWYQQKPGQAPRLLIYDASNRATGIPARFSGSGSGTDFTLSISSLEPEDFAVYYCQHRSNWPPYTFGQGTKLEIK
- pseudovirus neutralization IC50 [1]: 7.2 ng/mL
- pseudovirus neutralization IC90 [2]: 38.4 ng/mL
- ELISA binding EC50 [3]: > 1000 ng/mL
- ELISA binding EC50 [4]: 289 ng/mL
- ELISA binding EC50 [5]: 7.73 ng/mL

B12: B678 (protein)
chain 1: EVQLVESGGGLIQPGGSLRLSCAVSGLGVNTNYMSWVRQAPGKGLEWVSLIYGGGSTYYADSVKGRFIISRDNSENTLYLQMNNLTTEDTAVYYCATSSGWYVLRRGGFDYWGQGTLVTVSS
chain 2: EIVLTQSPGTLSLSPGERATLSCRASQSIDSRVLAWYQQKPGQAPRLLIYGASSRATGIPDRFSGSGSGTDFTLTISRLEPEDFVVYFCQQYGTSPGTFGQGTKLEIK
- pseudovirus neutralization IC50 [1]: 5.13 ng/mL
- pseudovirus neutralization IC90 [2]: 22.6 ng/mL
- ELISA binding EC50 [3]: 3.08 ng/mL
- ELISA binding EC50 [4]: > 1000 ng/mL
- ELISA binding EC50 [5]: 2.77 ng/mL

B13: B680 (protein)
chain 1: EVQLVESGGGLVQPGGSLRLSCVASGFTFSSYDMHWVRQTTGKGLEWVSLIGTAGDTYYPDSVKGRFTISRENAKNSLYLQMNSLRAEDTAVYYCARGGYSFGYGGGFFDPWGQGTLVTVSS
chain 2: DIQMTQSPSSLSASVGDRVTFTCRASQSISRYLNWYQQKPGKAPKLLIHGASSLQSGVPSRFSGSGSGTEFTLTINSLQPEDFATYYCQQSYSTPGYTFGQGTKLEIK
- pseudovirus neutralization IC50 [1]: > 1000 ng/mL
- pseudovirus neutralization IC90 [2]: > 1000 ng/mL
- ELISA binding EC50 [3]: 12 ng/mL
- ELISA binding EC50 [4]: 13.6 ng/mL
- ELISA binding EC50 [5]: 2.04 ng/mL

B14: B681 (protein)
chain 1: EVQLLESGGALVQPGGSLRLSCAASGFAFSNYAMSWVRQAPGKGLEWVSAISGRGDRTYYADSVKGRFTVSRDNSNNTLYLQMKSLRAEDTAVYYCAKDVDTAMVQAEYFQHWGQGTLVTASS
chain 2: DIQMTQSPSTLSASVGDRVTITCRASQSVGRWLAWYQQKPGKAPKLLISDASSLEAGVPSRFSGSGSGTEFTLTISSLQPDDFATYYCQQCNGHITFGPGTKVDIK
- pseudovirus neutralization IC50 [1]: 11.9 ng/mL
- pseudovirus neutralization IC90 [2]: 33 ng/mL
- ELISA binding EC50 [3]: 2.38 ng/mL
- ELISA binding EC50 [4]: 3.02 ng/mL
- ELISA binding EC50 [5]: 2.67 ng/mL

Recombinant human monoclonal antibodies (heavy:light variable regions). ELISA EC50 on the named antigen, from 10 µg/ml down; IC50 / IC90 against spike pseudovirus on 293T-ACE2 cells, 48 h; lower = stronger. Calls: IC50 above 1,000 ng/ml = non-neutralizing; EC50 above 1,000 ng/ml = non-binder. The source prints 1000 for neutralization that was not reached; it is given as >1000 ng/ml. Only binders of the Wuhan-Hu-1 domain have neutralization values.
